Measurements reported in PubChem BioAssay AID588855 (National Center for Advancing Translational Sciences (NCATS), 2011).
The campaign covered roughly 410,000 compounds. About 5,000 (1.2%) were called active. This list was built around the results that the source calls inconclusive (neither active nor inactive); the mix of calls is not that of the screen. Calls follow the shape of the dose curve; as a rule, active = well fitted inhibition curve with a large enough effect; inconclusive = small, poorly fitted or top-dose-only effect; inactive = no such curve, though single readings can be large or run the other way. A potency beside an inconclusive call is a rough fit, not a confirmed value.
Potency is read from the fitted curve at half-maximal effect; tags tell the direction and shape of the fitted curve.

Assay: qHTS for Inhibitors of TGF-b; also: nearly all actives have a fitted effect of over 65% in size
Details: HepG2 CAGA-GFP TGF-b/SMAD3 reporter, GFP fluorescence, 18 h, TGF-beta stimulated, 500 pg/mL final; series mostly up to 46.1 µM
In short: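 TGF-beta reporter screen: HEPG2 CAGA-GFP, 1% FBS, 500 pg/mL TGF-beta final, 18 h; per-cell GFP summed per well; curves fitted and categorized by class.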
With `COc1cccc(NC(=O)CSc2nc3n[nH]c(C)c3c(=N)n2-c2cccc(OC)c2)c1` the Potency was inconclusive: 0.562 µM [inhibitor, partial curve, poor fit]. With `COC(=O)c1cn(NC(=O)Cc2cccc(OC)c2)c(=O)c2ccccc12` the Potency was inconclusive: 6.31 µM [inhibitor, single point]. With `CCOCCCNc1nc2c(c(=O)[nH]c(=O)n2C)n1CCCc1ccccc1` the Potency was “inactive”. With `O=C/C=C/c1c(-c2ccccc2)cc2oc3ccccc3cc1-2` the Potency was active: 11.2 µM. For `O=S(=O)(c1ccccc1Cl)N1CCCC(c2nc(-c3cccnc3)no2)C1` (stereo not given), the Potency was inconclusive: 3.98 µM [inhibitor, partial curve, poor fit]. With `O=C(c1nn(Cc2ccccc2)c(=O)c2ccccc12)N1CCc2ccccc2C1` the Potency was inconclusive: 22.4 µM [inhibitor, single point]. With `O=C(c1ccco1)N1CCN(C2c3ccccc3-c3ccccc32)CC1` the Potency was inconclusive: 10 µM [inhibitor, partial curve, poor fit]. For `Cc1ccc(-n2ncc(C(=O)NCCCN3CCN(c4cccc(Cl)c4)CC3)c2-n2cccc2)cc1`, the Potency was inconclusive: 0.501 µM [inhibitor, full curve, poor fit]. With `O=C(c1cnc(N2CCCCC2)c2ccccc12)N1CCN(c2ccccc2F)CC1` the Potency was inconclusive: 11.2 µM [inhibitor, partial curve, poor fit]. With `C=C1C(=O)[C@]23C[C@H]1CC[C@H]2[C@]1(C)[C@@H](OC(C)=O)CC[C@@](C)(C(=O)O)[C@H]1C[C@@H]3OC(C)=O` the Potency was active: 10 µM. In the case of `Oc1ccccc1NCC(O)Cn1ccc2ccccc21` (stereo not given), the Potency is reported as inconclusive: 11.2 µM [inhibitor, single point]. For `CCCSc1oc(-c2cccs2)nc1S(=O)(=O)c1ccc(Cl)cc1`, the Potency was “inactive”. With `CN(C)c1nc(N)nc(Nc2ccccc2C#N)n1` the Potency was inconclusive: 3.98 µM [inhibitor, partial curve, poor fit]. With `CCOc1ccccc1NC(=O)c1ccc2[nH]c(C)c(C)c2c1` the Potency was inconclusive: 35.5 µM [inhibitor, single point]. With `C=C1c2ccccc2NC(=S)N1Cc1ccc2c(c1)OCO2` the Potency was inconclusive: 12.6 µM [inhibitor, single point]. For `COc1ccc(-c2nc3c4ccccc4ccn3c2Cc2ccsc2)cc1OC`, the Potency was inconclusive: 35.5 µM [inhibitor, partial curve, poor fit]. In the case of `COc1ccc(Cn2c(CNS(=O)(=O)c3ccc4c(c3)CCCC4)nc3cccnc32)cc1`, the Potency is reported as inconclusive: 12.6 µM [inhibitor, partial curve, poor fit]. In the case of `Cc1nn(C(C)(C)C)c(OC(=O)c2cccs2)c1S(=O)(=O)c1ccccc1`, the Potency is reported as inconclusive: 35.5 µM [inhibitor, single point]. For `Cn1c(=O)n(C)c2cc(/C=C3/SC(=O)N(CC(=O)N4CCOCC4)C3=O)ccc21`, the Potency was “inactive”. In the case of `COc1ccc(-c2nc3cc(NC(=O)Cc4ccc(OC)c(OC)c4)ccc3o2)cc1`, the Potency is reported as inconclusive: 35.5 µM [inhibitor, single point]. With `Cc1cccc(C(=O)N2CCN(c3ccc([N+](=O)[O-])c(N4CCOCC4)c3)CC2)c1` the Potency was inconclusive: 20 µM [inhibitor, partial curve]. In the case of `COc1ccc(/C=C/C(=O)c2ccccc2)cc1Cn1nnc2ccccc21`, the Potency is reported as active: 8.91 µM. With `O=C(c1ccc2c(c1)OCCO2)N(Cc1cccnc1)c1nc2c(F)cccc2s1` the Potency was inconclusive: 35.5 µM [inhibitor, single point]. With `CCOc1ccccc1Nc1nnc(SCc2nnc(-c3cc(OC)c(OC)c(OC)c3)o2)s1` the Potency was “inactive”. In the case of `CS(=O)(=O)CCC(C(=O)Nc1ccc2c(c1)OCO2)N1Cc2ccccc2C1=O` (stereo not given), the Potency is reported as “inactive”. With `Cn1c(=O)c2[nH]c(NCCCN3CCOCC3)nc2n(C)c1=O` the Potency was inconclusive: 31.6 µM [inhibitor, single point]. With `Cc1cccc(-c2noc(CN(C(=O)c3ccccc3Cl)C(C)C)n2)c1` the Potency was “inactive”. For `O=C(NCC(c1cccs1)N1CCOCC1)c1cccc([N+](=O)[O-])c1` (stereo not given), the Potency was “inactive”. With `COc1ccc(OC)c(Nc2nc(N)c([N+](=O)[O-])c(N3CCOCC3)n2)c1` the Potency was “inactive”. For `COc1ccc(CNC(=O)c2c(C)oc3c2C(=O)c2ccccc2C3=O)cc1`, the Potency was active: 1 µM. In the case of `CC(C)(C)CNC(CO)C12CC3CC(CC(C3)C1)C2` (stereo not given), the Potency is reported as “inactive”. For `CC(C)(Oc1ccc(Cl)cc1)C(=O)O/N=C(\N)c1ccncc1`, the Potency was “inactive”. For `COc1ccc(/C=N\NC(=O)c2ccc(F)cc2)cc1COc1cc(F)ccc1[N+](=O)[O-]`, the Potency was inconclusive: 10 µM [inhibitor, partial curve, poor fit]. With `Cc1cccc(NC(=S)N(CCN2CCOCC2)Cc2ccccc2F)c1` the Potency was “inactive”. In the case of `O=C(NNC(=S)NC(=O)c1ccc(Br)cc1)c1cccc([N+](=O)[O-])c1`, the Potency is reported as inconclusive: 35.5 µM [inhibitor, single point]. With `c1ccc(COc2ncnc3c2ncn3CCCNCC2CCCO2)cc1` (stereo not given) the Potency was “inactive”. For `COc1ccc(C(CC(=O)O)c2ccc3c(c2)OCO3)cc1` (stereo not given), the Potency was “inactive”. In the case of `COc1ccc(OC)c(S(=O)(=O)NCC(c2ccc3c(c2)OCO3)N2CCOCC2)c1` (stereo not given), the Potency is reported as “inactive”. With `Cc1cc(C(=O)NC2CC(C)(C)Cc3c2cnn3-c2cccc(F)c2)n(C)n1` (stereo not given) the Potency was inconclusive: 35.5 µM [inhibitor, single point]. With `CCOC(=O)c1ccc(NC(=O)CNNC(=O)COc2ccccc2C)cc1` the Potency was “inactive”. With `Cc1c(C)n(C)c2ccc(C(=O)Nc3cccc4ccccc34)cc12` the Potency was “inactive”. For `Cc1ccc(C2CC(c3ccccc3)=NN2c2ccc(S(N)(=O)=O)cc2)cc1` (stereo not given), the Potency was inconclusive: 22.4 µM [inhibitor, single point]. With `O=C(O)C1CCCN1c1nc(-c2ccc(Cl)c(Cl)c2)cc(C(F)(F)F)n1` (stereo not given) the Potency was inconclusive: 22.4 µM [inhibitor, single point]. With `O=C(NCCNc1cc(Cl)ccc1[N+](=O)[O-])c1ccco1` the Potency was “inactive”. For `O=C(/C=C/c1ccc([N+](=O)[O-])cc1)N(c1ccccn1)C1CCCCC1`, the Potency was inconclusive: 0.501 µM [inhibitor, full curve, poor fit].
